This note sets out measurements from publication PMC4336329 (PLoS ONE, 2015).

In all, about 310,000 compounds went through this assay and about 14,000 (4.5%) showed an effect of 50% or more. Effects have a minus sign here. The list shows a part of the results.
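Further: peak tail current of the secondary pulse compared with the same well before compound.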

In the assay the target is human ether-à-go-go-related gene (hERG) potassium channel (human, UniProt Q12809). Description: primary screen, population patch clamp on CHO cells stably expressing hERG.
Sequence of human ether-à-go-go-related gene (hERG) potassium channel (Q12809 whole entry, looked up): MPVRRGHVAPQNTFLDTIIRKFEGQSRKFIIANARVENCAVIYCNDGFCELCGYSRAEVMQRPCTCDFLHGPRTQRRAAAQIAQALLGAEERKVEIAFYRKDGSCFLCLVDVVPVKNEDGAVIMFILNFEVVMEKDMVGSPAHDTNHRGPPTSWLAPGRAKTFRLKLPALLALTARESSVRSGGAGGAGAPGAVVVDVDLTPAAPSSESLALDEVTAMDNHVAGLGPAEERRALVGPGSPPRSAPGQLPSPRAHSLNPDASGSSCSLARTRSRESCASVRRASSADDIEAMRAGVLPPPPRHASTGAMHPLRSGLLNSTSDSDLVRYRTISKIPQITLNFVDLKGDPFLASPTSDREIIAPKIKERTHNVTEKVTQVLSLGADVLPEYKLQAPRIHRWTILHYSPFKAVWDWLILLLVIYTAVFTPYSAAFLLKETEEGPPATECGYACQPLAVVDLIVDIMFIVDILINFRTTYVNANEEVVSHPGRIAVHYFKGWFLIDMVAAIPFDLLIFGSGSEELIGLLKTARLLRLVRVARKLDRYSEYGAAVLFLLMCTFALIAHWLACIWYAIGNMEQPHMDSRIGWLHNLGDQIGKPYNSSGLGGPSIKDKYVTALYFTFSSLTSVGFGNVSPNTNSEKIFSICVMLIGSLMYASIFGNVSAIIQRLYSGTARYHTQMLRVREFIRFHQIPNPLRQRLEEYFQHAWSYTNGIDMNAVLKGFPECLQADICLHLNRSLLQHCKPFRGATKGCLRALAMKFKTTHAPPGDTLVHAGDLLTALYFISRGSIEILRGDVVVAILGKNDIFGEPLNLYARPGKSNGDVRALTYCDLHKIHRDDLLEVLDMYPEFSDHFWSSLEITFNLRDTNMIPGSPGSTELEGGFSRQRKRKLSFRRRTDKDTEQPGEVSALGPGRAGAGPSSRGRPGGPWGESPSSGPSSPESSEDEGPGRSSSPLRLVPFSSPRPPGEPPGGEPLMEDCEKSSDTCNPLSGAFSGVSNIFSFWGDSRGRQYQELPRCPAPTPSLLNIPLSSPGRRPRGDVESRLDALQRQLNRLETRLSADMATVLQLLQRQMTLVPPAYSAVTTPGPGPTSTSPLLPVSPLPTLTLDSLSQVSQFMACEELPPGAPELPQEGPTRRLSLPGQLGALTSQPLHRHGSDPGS
In the case of `CCN(CC)CCn1c(=O)n(-c2ccc(Cl)cc2)c(=O)c2c3c(sc21)CN(C)CC3`, the “hERG current change (%, negative = inhibition) at 10uM” value is reported as -18.4%.
The result for `COc1ccc(CC(=O)NC(C)c2nnc(SCC(=O)c3ccc(OC)cc3)n2C)cc1` (stereo not drawn) reads -3.19%.
In the case of `Cc1nn(Cc2ccccc2)c(C)c1C(=O)N1CCN(CC(=O)Nc2ccccc2Cl)CC1` it was -50.3%.
The result for `Cc1cc(C)cc(OCC(=O)NNC(=O)CCC(=O)NCc2ccccc2)c1` reads 7.35%; that for `NC(=S)Nc1cc(Cl)cc(Cl)c1`, 17.1%.
Consider `Cc1ccc(C(=O)NC(=S)Nc2ccc(-c3ccc(CO)o3)cc2)cc1`, for which the “hERG current change (%, negative = inhibition) at 10uM” value amounted to 15.3%.
As to `O=C(NC1CCCC1)c1ccc(COCC(F)(F)F)o1`, the “hERG current change (%, negative = inhibition) at 10uM” value stood at 8.1%.
The result for `O=C(c1ccc(F)cc1Cl)N1CCC2(CC1)OCCO2` reads 19.7%.
For the molecule `Cc1nc(CN2CCOCC2)cc(=O)[nH]1`, the “hERG current change (%, negative = inhibition) at 10uM” value is reported as -10.5%.
In the case of `CC(C)NC(=O)C1CCN(C2CCN(Cc3nc4ccccc4s3)CC2)CC1` it was -65.2%; in that of `Cc1ccc(Nc2cc(C)c(O)c(C)c2)cc1`, 0.616%; in that of `Cc1ccc(C(=O)CN(CCC(=O)O)C(=O)c2ccncc2)cc1`, 14.4%.
In the case of `COC(=O)c1cccc(NC(=O)NC(=O)c2ccccc2Cl)c1` it was 47.2%.
For `Cl.Cn1ccc2cc3c(cc21)CCN3C(=O)Nc1cccnc1.O`, the “hERG current change (%, negative = inhibition) at 10uM” value is listed as -1.83%.
The result for `O=C(Nc1ccccc1N1CCCC1)c1cccc(-c2cc3ccccc3oc2=O)c1` reads 3.55%.
Regarding `Cc1ccccc1CC(=O)N1CCCc2ccccc21`, the “hERG current change (%, negative = inhibition) at 10uM” value is given as 9.93%.
The result for `Cc1cc(Cl)ccc1OCC(=O)NCCOC(=O)Nc1sc(=S)n(C)c1C` reads 3.5%.
The result for `COc1cc2c(cc1NC(=O)CSCC(=O)O)oc1ccccc12` reads 14.8%.
The result for `O=C(CSc1nnc(Nc2ccccc2)s1)NCCN1C(=O)CSC1=O` reads 15.6%; that for `CCn1nc(C(=O)OCc2cccc(S(=O)(=O)N(C)C)c2)c2ccccc2c1=O`, -35.1%.
As to `Cc1ccc2nc(/C=C/c3cccc(F)c3)ccc2c1`, the “hERG current change (%, negative = inhibition) at 10uM” value came out at 28.1%.
In the case of `COc1ccc(N(C)S(=O)(=O)c2cccc(C(=O)NCc3ccc(C)cc3)c2)cc1`, the “hERG current change (%, negative = inhibition) at 10uM” value is listed as -16.5%.
Turning to `CNC(=O)c1[nH]cnc1C(=O)N[C@@H](CC(C)C)C(=O)OCc1ccccc1`, the “hERG current change (%, negative = inhibition) at 10uM” value is on record as -58.2%.
In the case of `CC(/C=N/NC(=O)c1cccs1)=C\c1ccccc1` it was 5.15%.
The result for `Cn1c(=O)n(C)c2cc(C(N)=O)ccc21` reads -10.3%; that for `CCCNC(=O)c1ccc2c(c1)S(=O)(=O)c1ccccc1C2=O`, -10.9%; that for `COC(=O)c1ccc(CN2CCN(Cc3ccc(C(=O)OC)o3)CC2)o1`, 19.1%.
With `CCOC(=O)/C(C#N)=N/Nc1ccc(S(=O)(=O)Nc2cc(OC)nc(OC)n2)cc1`, the “hERG current change (%, negative = inhibition) at 10uM” value is given as -13.1%.
In the case of `CN(CC1CCOCC1)C(=O)c1ccc2nc(Cc3cccc(Cl)c3)oc2c1` it was -69.7%; in that of `C=CCNC(=O)O/N=C/c1csc([N+](=O)[O-])c1`, 13.3%; in that of `Cn1c(-c2ccc(Br)o2)nc2cc(Br)ccc21`, 17.9%.
`COc1ccc(C)cc1N(CC(=O)NCCN1CCOCC1)S(=O)(=O)c1ccccc1`: the “hERG current change (%, negative = inhibition) at 10uM” value is given as -6.92%.
For the molecule `COCCCNC(=O)CCc1c(C)c2cc3c(C)coc3cc2oc1=O`, the “hERG current change (%, negative = inhibition) at 10uM” value was -5.79%.
Regarding `COc1ccccc1CNC(=O)[C@H](C)NC(=O)C1CCN(C(=O)[C@@H](N)CCSC)CC1`, the “hERG current change (%, negative = inhibition) at 10uM” value is 8.03%.
On to `O=C(CC1C(=O)NCCN1Cc1cccc(Oc2ccccc2)c1)NCCc1cscn1` (stereo not drawn), for which the “hERG current change (%, negative = inhibition) at 10uM” value is given as 8.01%.
Take `Cc1ccc(Cn2c(C3CCCN3c3nc(C)cs3)nc3cc(C(F)(F)F)ccc32)cc1` (stereo not drawn): the “hERG current change (%, negative = inhibition) at 10uM” value came out at 0.159%.
`CCCCOc1ccc(CN(CCO)CCO)cc1[N+](=O)[O-].Cl`: the “hERG current change (%, negative = inhibition) at 10uM” value is listed as -22%.
In the case of `Cc1ccc2c(c1)N(CCC(=O)NC(C)C)C(=O)CO2` it was 13.5%; in that of `CCOC(=O)/C(C#N)=N\Nc1cc(Cl)ccc1OC`, 12.6%.
In the case of `Cl.O=C(CCN1CCN(CCO)CC1)Nc1ccc(C2CCCC2)cc1` it was -43%; in that of `Cc1c(C(=O)NCc2cccnc2)sc2nc(-c3ccccc3)cn12`, -55.2%; in that of `CC(=O)N/C(=C/c1ccc(OS(=O)(=O)c2ccc(C)cc2)cc1)C(=O)NCCCO`, -2.69%.
Turning to `Fc1ccc(-c2ccnc3nc(N4CCN(c5ccccc5)CC4)nn23)cc1`, the “hERG current change (%, negative = inhibition) at 10uM” value is recorded as -26.5%.
In the case of `Cc1ccc(C(=O)Nc2cccc(C(=O)N/N=C/c3ccc(F)cc3)c2)cc1` it was 10.5%; in that of `O=C(CCCn1c(=S)[nH]c2cc3c(cc2c1=O)OCO3)N1CCN(c2ccccc2F)CC1`, 20.6%.
The result for `COc1ccc(C(=O)[C@H]2[C@H]3C(=O)N(c4ccc(OC(C)=O)cc4)C(=O)[C@H]3C3C=CC=NN32)cc1` (stereo partly drawn) reads 9.81%; that for `C=CCN1C(=O)CS/C1=N/c1nccs1`, 3.51%.
In the case of `Cc1cc(C(=O)Nc2cccc(O)c2)co1`, the “hERG current change (%, negative = inhibition) at 10uM” value was determined as 15.4%.
In the case of `O=C(CNC(=O)c1cccnc1)N/N=C/c1cccnc1` it was 8.4%.
`Cc1nnc(Sc2cc(C(=O)NCCCOC(C)C)c3ccccc3n2)s1`: the “hERG current change (%, negative = inhibition) at 10uM” value is given as -9.18%.
In the case of `Cn1cc(CC(=O)N2CCN(c3ccccc3F)CC2)c2ccccc21` it was -9.66%; in that of `Cc1ccccc1C(=O)NNC(=O)Cc1ccccc1`, 0.0513%.
In the case of `C[C@@H](NC(=O)c1coc(=O)c(Br)c1)c1ccccc1` it was 3.26%.
In the case of `COc1ccc(C=O)cc1CN1CCCN(Cc2ccc(Cl)cc2)S1(=O)=O` it was 8.59%.
Consider `NS(=O)(=O)c1ccc(CCNC(=O)CCCOc2ccccc2)cc1`, for which the “hERG current change (%, negative = inhibition) at 10uM” value is reported as 0.619%.
In the case of `CN(C(=O)c1ccncc1)C1CCCN(Cc2ccccc2F)C1` (stereo not drawn) it was -15.9%; in that of `COc1ccc(NC(=O)Nc2ccc3c(c2)N(C)C(=O)CS3)cc1OC`, -1.7%.
The result for `COc1cccc(NC(=O)c2cc(S(=O)(=O)N3CCc4ccccc43)cn2C)c1` reads 15.9%; that for `Nc1c(C(=O)CSc2nnc(-c3ccccc3)o2)c(=O)[nH]c(=O)n1C1CC1`, 12.2%; that for `O=C(COc1ccccc1)OC(C(=O)c1ccccc1)c1ccccc1` (stereo not drawn), 16.5%.
The result for `CCOC(=O)c1c(C)[nH]c(C(=O)COC(=O)c2oc3ccccc3c2C)c1C` reads 2.49%; that for `O=[N+]([O-])c1cccc(C(=Nc2ccccc2Cl)NO)c1`, -21%; that for `Cc1cc(C)c2ccc(NN)nc2c1O`, 2.07%.
`Cc1ccc(C(=O)Cn2cnc3ccccc3c2=O)cc1`: the “hERG current change (%, negative = inhibition) at 10uM” value was 5.47%.
The result for `Cc1ccc(-c2cnc(NC(=O)CCC(=O)N(C)Cc3ccccc3)n2C)cc1` reads -27.5%; that for `COc1ccc(C2(O)CCN(CCCCOc3ccccc3)CC2)cc1`, -70.6%.
For `COc1ccccc1C(=O)N/N=C/c1ccc2c(c1)OCO2`, the “hERG current change (%, negative = inhibition) at 10uM” value is given as 8.62%.
For `O=c1nc(N/N=C/c2c[nH]c3ccccc23)cn[nH]1`, the “hERG current change (%, negative = inhibition) at 10uM” value is given as 32%.
The result for `O=C(N1CCOCC1)N1CCN(Cc2ccccc2)CC1` reads 1.57%; that for `Oc1ccc(/C=N/N=C(c2ccccc2)c2ccccc2)c(O)c1O`, 8.49%.
In the case of `Cc1ccc(-n2ncc3c2CC(C)(C)CC3NC(=O)C2CCOCC2)cc1` (stereo not drawn) it was -37.5%; in that of `Nn1c(SCCOc2ccc(Cl)cc2)nnc1-c1cccnc1`, 70.2%; in that of `CN(c1ccccc1N(C)S(=O)(=O)c1ccccc1)S(=O)(=O)c1ccccc1`, 14.1%.
The result for `O=C(c1ccc2c(c1)OCO2)N1CCN(S(=O)(=O)N2CCCCC2)CC1` reads -5.57%; that for `O=C(Nc1cc(Cl)ccc1Oc1ccccc1)c1ccccc1F`, -4.45%.
Consider `CN(C)c1ccc(/C=C2/NC(=O)NC2=O)cc1`, for which the “hERG current change (%, negative = inhibition) at 10uM” value was found to be 25.7%.
For `C/C(CC(=O)Nc1cc(C)ccn1)=N\NC(=O)c1cccc(C)c1`, the “hERG current change (%, negative = inhibition) at 10uM” value was found to be 0.9%.
`COc1ccccc1NS(=O)(=O)CC12CCC(CC1=O)C2(C)C` (stereo not drawn): the “hERG current change (%, negative = inhibition) at 10uM” value is 4.78%.
The result for `Cc1cc(OC(=O)N(C)C)nc(SCc2c(Cl)cccc2Cl)n1` reads -6.04%.
In the case of `c1ccc(OCCn2cnc3ccccc32)cc1` it was -9.08%.
The result for `C=CCn1c(=N)c(S(=O)(=O)c2ccc(C)c(C)c2)cc2c(=O)n3ccccc3nc21` reads 14.3%.
As to `C/C(=N/NC(=O)Cc1c(C)[nH][nH]c1=O)c1ccc(O)cc1`, the “hERG current change (%, negative = inhibition) at 10uM” value worked out at 14.8%.
The result for `COCCCNC(=S)Nc1ccc(C)cc1[N+](=O)[O-]` reads 1.51%; that for `Fc1ccccc1NC(=S)N/N=C/c1ccccc1Br`, 1.26%.
In the case of `COc1cc(NC(=S)N(C)C)c(OC)cc1Cl` it was 15.2%; in that of `O=C(O)CCNC(=O)CCCn1nnc2ccccc2c1=O`, 13%.
Consider `CCOC(=O)C1(Cc2cccc(Cl)c2)CCCN(C(=O)c2cnn(CC)c2)C1` (stereo not drawn), for which the “hERG current change (%, negative = inhibition) at 10uM” value is -6.39%.
`Clc1cccc(Cl)c1CNc1ccc(N2CCCC2)cc1`: the “hERG current change (%, negative = inhibition) at 10uM” value was -2.46%.
Turning to `CCOc1ccc(-c2nnc3sc(COc4ccc(Cl)cc4)nn23)cc1`, the “hERG current change (%, negative = inhibition) at 10uM” value is reported as -2.27%.
Regarding `Cc1ccc(S(=O)(=O)N2CCCC(C(=O)NCCc3ccc(S(N)(=O)=O)cc3)C2)cc1` (stereo not drawn), the “hERG current change (%, negative = inhibition) at 10uM” value stood at 3.93%.
